We go through 2 molecules from patent US20220000984A1 (JIANGSU GENSCIENCES, published 2022).

This assay concerns the target GLP-1 receptor (GLP-1R) on HEK293/CRE-Luc/GLP1R cells (UniProt P43220 24-463, limits assumed). As to the kind of experiment: cell-based or functional assay.

B1: GLP1-L1-Fc4-L2-STG3 (Fc fusion)
chain: HGEGTFTSDVSSYLEEQAAKEFIAWLVKGGGGGGGSGGGGSGGGGSA[human IgG4 Fc with S228P F234A L235A (EU numbers) not listed]GGGGSGGGGSLPETGGG
For the molecule B1, the “relative activity compared with dulaglutide (CRE-luciferase reporter, HEK293/CRE-Luc/GLP1R cells)” value came to 112%.

B2: GLP1-L1-Fc4-L2-STG3 crosslinked with 40 kDa PEG (Fc fusion)
chain: HGEGTFTSDVSSYLEEQAAKEFIAWLVKGGGGGGGSGGGGSGGGGSA[human IgG4 Fc with S228P F234A L235A (EU numbers) not listed]GGGGSGGGGSLPETGGGAA
modifications: 40 kDa PEG on the added C-terminal GGGAA (GGGAA-PEG joined by sortase A to the T of LPET)
Take B2: the “relative activity compared with dulaglutide (CRE-luciferase reporter, HEK293/CRE-Luc/GLP1R cells)” value is 21.5%.
